# Source: PubChem BioAssay AID463173 (ICCB-Longwood Screening Facility, Harvard Medical School, 2010)
# About 4,300 (8.3%) of roughly 52,000 compounds were called active. Rule as the data show it: active = survival mostly below about 52% (no sharp cut-off); inactive = mostly above about 56%. This is one part of the list.
# Test system: DeltatarO mutant
# Experiment: growth inhibition of S. aureus wild type versus tarO mutant, primary screen, teichoic acid synthesis inhibitors, RN4220, OD600 (AID 463173)
# Settings: OD600, 18 h, hits give low values, screened at 18.75 µg/mL (by protocol)
row,Structure (SMILES),survival
1,Cc1ccc(C)c(CSc2cn(CC(=O)N3CCCC3)c3ccccc23)c1,inactive: 63%
2,CCOc1ccc(CN2CCC(C(=O)NCC3CCCO3)CC2)cc1OC (stereo unspecified),inactive: 99%
3,COc1ccc(NC(=O)CC2C(=O)N(c3ccc(OC)cc3)C(=O)N2Cc2ccc(OC)c(OC)c2)cc1 (stereo unspecified),inactive: 131%
4,CCOc1ccc(C(c2nnnn2C(C)C)N2CCN(c3cccc(Cl)c3)CC2)cc1 (stereo unspecified),inactive: 93%
5,CCOc1ccc(CCNC(=O)CCn2c(=O)c3cccn3c3ccc(F)cc32)cc1OCC,active: 42%
6,COCCCNC(=O)C1CCN(Cc2cc3ccccc3n2Cc2cccc(Cl)c2)CC1,inactive: 87%
7,Cc1ccc(-c2cn3c(n2)sc2cc(C(=O)NC4CCCCCC4)ccc23)cc1,inactive: 94%
8,Cc1cc(C)n2nc(CNC(=O)c3cccc(N(C)C)c3)nc2n1,inactive: 126%
9,Cc1noc2ncnc(NCCc3ccccc3)c12,inactive: 67%
10,O=C(c1ccccc1)N1CCC(O)(c2cccnc2)CC1,inactive: 70%
11,COc1ccc(N2CCN(C(=O)c3ccc4c(c3)CCN4S(=O)(=O)c3ccccc3)CC2)cc1,inactive: 92%
12,COc1cccc(-c2cc(C(=O)NCc3ccccc3)no2)c1,active: 45%
13,Cc1c(C(=O)N(C)Cc2ccccc2)sc2nc(-c3ccc(F)cc3)cn12,inactive: 69%
14,COc1cc(NC(=O)CSc2cc(=O)n(C)c3ccccc23)cc(OC)c1OC,inactive: 99%
15,CC(NCc1ccc2c(c1)n(C)c(=O)n2C)c1ccccc1 (stereo unspecified),inactive: 94%
16,CCOc1ccccc1NC(=O)C1CCCN(S(=O)(=O)c2cccs2)C1 (stereo unspecified),inactive: 97%
17,Cc1ccc(NS(=O)(=O)c2ccc3nc(-c4ccccc4)[nH]c3c2)cc1Cl,active: 6%
18,COc1ccc(Br)cc1CNC(=O)C1CCN(c2nnc(-n3cccc3CNc3ccc(C)cc3)s2)CC1,inactive: 72%
19,O=S(=O)(Nc1nc2n(n1)C(c1ccc(F)cc1)C=C(c1ccc(Cl)cc1)N2)c1ccccc1 (stereo unspecified),active: 42%
20,CCn1cc(C(=O)N(C)c2cc(C)ccc2C)c2cc(OC)c(OC)cc2c1=O,inactive: 171%
21,CSc1nn(CC(=O)Nc2ccc(C)cc2C)c(N)c1S(=O)(=O)c1ccc(Cl)cc1,inactive: 57%
22,Cc1ccc(C)c(S(=O)(=O)c2nnn3c2nc(NCc2ccc4c(c2)OCO4)c2sccc23)c1,inactive: 90%
23,CN(C)c1ccc(NC(=O)Cn2c(SCc3ccccc3F)nc3cccnc32)cc1,inactive: 124%

row,Structure (SMILES),survival
1,COc1ccc(-c2nnc(SCC(=O)Nc3ccc(F)cc3)s2)cc1,inactive: 83%
2,O=c1c2sc3ccccc3c2n(Cc2ccccc2F)c(=O)n1CCc1ccccc1,inactive: 69%
3,CN(C)c1ccc(C(CNS(=O)(=O)c2ccc(Br)cc2)N2CCOCC2)cc1 (stereo unspecified),inactive: 74%
4,CCOC(=O)c1ccccc1NC(=O)Cn1c(=O)n(Cc2ccccc2)c(=O)c2c(C)c(C)sc21,active: 84%
5,CCN(c1ccc(Cl)cc1)S(=O)(=O)c1nnc(NC(=O)C(C)C)s1,inactive: 84%
6,COc1ccc(Nc2nc(NCCO)c3ccccc3n2)c(OC)c1,inactive: 88%
7,CCC(=O)Oc1ccc(-c2nc3ccccc3c(=O)o2)cc1,inactive: 52%
8,Cc1ccc(-n2ncc(C(=O)N3CCN(Cc4ccccc4)CC3)c2C2CCN(C(=O)OC(C)(C)C)CC2)c(C)c1,inactive: 55%
9,CC(C)(C)OC(=O)N1CCC(c2c(C(=O)NCc3ccco3)cnn2-c2ccc(F)cc2)CC1,inactive: 88%
10,CCN(c1ccccc1)S(=O)(=O)c1ccc(Cl)cc1,inactive: 92%
11,O=[N+]1C2=C(CCCC2)N([O-])C12CCCC2,inactive: 72%
12,Cc1ccc(Cn2ccc(NC(=O)c3cc(-c4ccc(Cl)c(Cl)c4)on3)n2)cc1,active: 45%
13,COCCc1nn2c(=O)cc(COC(=O)c3ccc(C(C)(C)C)cc3)nc2s1,inactive: 122%
14,Cc1ccc(S(=O)(=O)c2nc(-c3ccc(Cl)cc3)oc2N2CCCCCC2)cc1,active: 36%
15,CCCn1c(SCC(=O)Nc2ccccc2C(F)(F)F)nnc1-c1ccoc1C,inactive: 77%
16,COc1ccc(CNc2ncnc3c2c(-c2ccccc2)cn3-c2ccccc2)cc1,inactive: 82%
17,CCN(CC)S(=O)(=O)c1ccc(C(=O)N=c2sc3cccc(OC)c3n2C)cc1,inactive: 97%
18,CCc1c(SCC(=O)O)nc2ccccc2c1C,inactive: 102%
19,CN1CC(=O)N(CC(=O)Nc2ccc(Cl)c(C(F)(F)F)c2)c2ccccc2C1=O,inactive: 85%
20,Cc1c(-c2cccc(NC(=O)C(C)(C)C)c2)nc2ncccn12,inactive: 79%
21,Cc1ccc(-c2nc(SCc3ccc(Br)cc3)n3[nH]c(=O)cc3n2)cc1,active: 37%
22,CCc1ccc(-c2ccc(C(=O)Oc3ccc(Br)cc3)cc2)nc1,inactive: 78%
23,O=C1C=CC(=O)N1c1ccc(N2CCCCC2)cc1,inactive: 89%

row,Structure (SMILES),survival
1,Cc1c(C)n(C)c2ccc(C(=O)NCCCN3CCCCC3)cc12,inactive: 69%
2,O=C(CSc1ncn(-c2ccccc2)n1)NC1CCCCC1,inactive: 61%
3,Cc1cccc(N2C(=O)CCSC23C(=O)N(Cc2ccc(F)cc2)c2ccccc23)c1 (stereo unspecified),inactive: 99%
4,Cc1ccc(-c2c(C(=O)NCCc3ccc(Cl)cc3)oc(=O)c3ccccc23)cc1,inactive: 51%
5,Cc1ccc(N2CNC(=O)c3c(C)cc(C)nc32)cc1,inactive: 74%
6,O=C(CC1(O)C(=O)N(CCc2ccccc2)c2ccc(Br)cc21)c1ccccc1O (stereo unspecified),active: 40%
7,CCOc1ccc(-c2cc(C(=O)NCc3ccccc3)c3c(-c4ccc(CC)cc4)[nH]nc3n2)cc1,active: 47%
8,O=C(COc1ccc(F)cc1)Nc1ccc2nc(SCc3ccccc3)sc2c1,inactive: 85%
9,CCc1cccc(NC(=O)CSc2ncc3c(n2)-c2ccccc2N(Cc2ccccc2C)S3(=O)=O)c1,active: 8%
10,Cc1ccccc1Nc1c2c(nc3nncn13)CCC2,inactive: 68%
11,O=C(O)/C=C\C(=O)Nc1ccc2cn[nH]c2c1,inactive: 71%
12,COc1ccc(NC(=O)Cc2csc(C)n2)cc1,inactive: 47%
13,COc1ccccc1CNC(=O)c1cccc(Nc2nc3ccccc3n3nnnc23)c1,inactive: 51%
14,N#Cc1c(N)oc(-c2ccc3c(c2)OCO3)c1-c1ccc2c(c1)OCO2,inactive: 89%
15,Cc1ccc2nc(N3CCN(c4cccc(C)c4C)CC3)c3nnnn3c2c1,inactive: 81%
16,COc1ccc(Cn2nnnc2C(c2ccccc2F)N(Cc2ccco2)CC2CCCO2)cc1 (stereo unspecified),inactive: 68%
17,CCC1CN(C(=O)N2CCC(C(=O)NCc3cccs3)CC2)c2cc(C)ccc2O1 (stereo unspecified),inactive: 86%
18,CCOC(=O)C1CCN(S(=O)(=O)c2cc(-c3cc(C)no3)ccc2C)CC1,inactive: 94%
19,Cc1cccc(-c2nc3scc(CCNC(=O)c4ccccc4Cl)n3n2)c1,inactive: 73%
20,CCCCNS(=O)(=O)c1ccc2c(c1)C(=C(C#N)C#N)c1cc(S(=O)(=O)NCCCC)ccc1-2,inactive: 89%
21,CCCCCn1c(=O)[nH]c2cc(C(=O)Nc3ccc(F)cc3)ccc2c1=O,inactive: 95%
22,CC(C)c1nn2c(=O)cc(COC(=O)c3ccc(NC(=O)CCc4ccccc4)cc3)nc2s1,inactive: 94%
23,Cc1cccc(NC(=O)CSc2nnc(CNC(=O)c3c(F)cccc3Cl)o2)c1C,inactive: 96%

row,Structure (SMILES),survival
1,CC1CCN(CCNC(=O)c2ccc(Cn3c(SCc4ccccc4)nc4cccnc43)cc2)CC1,inactive: 107%
2,CC(=O)c1ccc(NC(=O)NCCc2c[nH]c3ccccc23)cc1,inactive: 101%
3,COc1ccc(N2CCN(C(=O)CN(c3cccc(C(F)(F)F)c3)S(C)(=O)=O)CC2)cc1,inactive: 102%
4,CCCC12CN3CC(C)(CN(C1)C3c1cn(C)c3ccccc13)C2=O (stereo unspecified),inactive: 96%
5,CCc1cccc(NCc2ccccc2-c2nnc(-c3ccccc3Cl)o2)c1,inactive: 87%
6,CCOc1ccc(NC(=O)c2ccc(F)c(S(=O)(=O)NCc3ccc4c(c3)OCO4)c2)cc1,inactive: 81%
7,CC(=O)Nc1ccc(S(=O)(=O)Nc2ccc3c(c2)OC(C)(C)O3)cc1,inactive: 101%
8,COc1ccc(-n2c(SCc3ccccc3F)nc3c([nH]c4ccccc43)c2=O)cc1,inactive: 92%
9,O=C(NC1CC(=O)N(c2ccc(Cl)cc2)C1)c1ccc(S(=O)(=O)N2CCCC2)cc1 (stereo unspecified),inactive: 79%
10,Cc1ccccc1CSc1nnc2[nH]c(=O)cc(C)n12,inactive: 84%
11,O=C(Cn1cc(S(=O)(=O)Cc2ccc(F)cc2)c2ccccc21)NCc1ccccc1Cl,inactive: 79%
12,O=C(NCCCc1nc2ccccc2n1Cc1ccc(Cl)cc1)c1ccco1,inactive: 105%
13,CCOc1ccc(NC(=O)CSc2nnc(-c3ccc(C)cc3)c(-c3ccc(C)cc3)n2)cc1,inactive: 115%
14,Cc1oc2ncn(CC(C)C)c(=O)c2c1C(=O)NCCCN(Cc1ccccc1)C(C)C,inactive: 117%
15,CCc1cccc(C)c1NC(=O)CSc1nnc(N)s1,inactive: 80%
16,COc1ccc(CCNC(=O)CS(=O)Cc2nc(-c3ccc(C)cc3)oc2C)c(OC)c1 (stereo unspecified),inactive: 91%
17,O=C(Cn1c(=O)nc(-c2ccccc2)c2ccccc21)NCCCc1ccccc1,inactive: 67%
18,Cc1ccccc1N1CCN(S(=O)(=O)c2nnc(NC(=O)c3ccc(Cl)cc3)s2)CC1,active: 43%
19,CCOc1ccccc1NS(=O)(=O)c1cnc(N)nc1,active: -1%
20,COc1ccccc1N1CCN(C(=O)Cc2c(C(=O)O)c(C)cn2C)CC1,active: -5%
21,COc1ccc(-c2cc(C(=O)NCc3ccccc3)c3c(-c4ccccc4)[nH]nc3n2)cc1,inactive: 93%
22,CC1CCN(C(=O)Cn2ncc3c4ccccc4n(Cc4ccc(Cl)cc4)c3c2=O)CC1,inactive: 87%
